The supplement of paper PMC4604168 (melanoma cell lines)
This is one part of the list. Repeats are few or missing, and single values can be far off.

Tests used:
Assay in all cases: cell count relative to DMSO control; melanoma cells; higher = more viable cells
Settings in all cases: library dose: low library concentration; 72 h
MZ2-MEL = test system: MZ2-MEL
MeWo = test system: MeWo
RPMI7951 = test system: RPMI7951
RVH-421 = test system: RVH-421
SkMel28 = test system: SkMel28
SkMel2 = test system: SkMel2
SkMel30 = test system: SkMel30
UACC62 = test system: UACC62
WM115 = test system: WM115
WM1716 = test system: WM1716
WM1745 = test system: WM1745
WM3526 = test system: WM3526
WM3619 = test system: WM3619
WM451Lu = test system: WM451Lu
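Also: cell number obtained by counting DAPI-stained nuclei in high-throughput microscope images with image analysis software, screen run in 1,536-well plates.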

## CS(=O)(=O)CCNCc1ccc(-c2ccc3ncnc(Nc4ccc(OCc5cccc(F)c5)c(Cl)c4)c3c2)o1 [lapatinib] + Clc1ccc(Nc2nnc(Cc3ccncc3)c3ccccc23)cc1 [vatalanib] (first compound 0.8 µM, partner dose 2 µM)
MZ2-MEL
  cell count: 95.3%
MeWo
  cell count: 84.6%
RPMI7951
  cell count: 84.7%
RVH-421
  cell count: 113%
SkMel28
  cell count: 106%
SkMel2
  cell count: 87.3%
SkMel30
  cell count: 86.8%
UACC62
  cell count: 95%
WM115
  cell count: 101%
WM1716
  cell count: 105%
WM1745
  cell count: 101%
WM3526
  cell count: 98.5%
WM3619
  cell count: 82.8%
WM451Lu
  cell count: 94.2%

## CN1CCN(c2ccc3nc(-c4c(N)c5c(F)cccc5[nH]c4=O)[nH]c3c2)CC1 [Dovitinib] + C=C(c1ccc(C(=O)O)cc1)c1cc2c(cc1C)C(C)(C)CCC2(C)C [Bexarotene] (first compound 0.1 µM, partner dose 2 µM)
MZ2-MEL
  cell count: 68.8%
MeWo
  cell count: 77%
RPMI7951
  cell count: 78.2%
RVH-421
  cell count: 99.4%
SkMel28
  cell count: 64.8%
SkMel2
  cell count: 82.4%
SkMel30
  cell count: 43.2%
UACC62
  cell count: 81%
WM115
  cell count: 82.9%
WM1716
  cell count: 107%
WM1745
  cell count: 77.8%
WM3526
  cell count: 60.1%
WM3619
  cell count: 85.8%
WM451Lu
  cell count: 61.7%

## C=CCNC1=C2C[C@@H](C)C[C@H](OC)[C@H](O)[C@@H](C)/C=C(\C)[C@H](OC(N)=O)[C@@H](OC)/C=C\C=C(/C)C(=O)NC(=CC1=O)C2=O [Tanespimycin] + OCc1c[nH]c2ccccc12 [Indole-3-carbinol] (first compound 0.002 µM, partner dose 0.8 µM)
MZ2-MEL
  cell count: 102%
MeWo
  cell count: 98.6%
RPMI7951
  cell count: 87.2%
RVH-421
  cell count: 99.4%
SkMel28
  cell count: 104%
SkMel2
  cell count: 98.4%
SkMel30
  cell count: 111%
UACC62
  cell count: 95.8%
WM115
  cell count: 91.1%
WM1716
  cell count: 90.6%
WM1745
  cell count: 86.8%
WM3526
  cell count: 98.9%
WM3619
  cell count: 93.1%
WM451Lu
  cell count: 96.6%

## CNC(=O)c1cc(Oc2ccc(NC(=O)Nc3ccc(Cl)c(C(F)(F)F)c3)cc2)ccn1 [sorafenib] + C=CCNC1=C2C[C@@H](C)C[C@H](OC)[C@H](O)[C@@H](C)/C=C(\C)[C@H](OC(N)=O)[C@@H](OC)/C=C\C=C(/C)C(=O)NC(=CC1=O)C2=O [Tanespimycin] (first compound 0.4 µM, partner dose 0.002 µM)
MZ2-MEL
  cell count: 93.8%
MeWo
  cell count: 101%
RPMI7951
  cell count: 91%
RVH-421
  cell count: 74.9%
SkMel28
  cell count: 90.8%
SkMel2
  cell count: 93.1%
SkMel30
  cell count: 102%
UACC62
  cell count: 96.1%
WM115
  cell count: 92.2%
WM1716
  cell count: 97.8%
WM1745
  cell count: 98.1%
WM3526
  cell count: 90.3%
WM3619
  cell count: 102%
WM451Lu
  cell count: 84.1%

## CN1CCN(c2ccc3nc(-c4c(N)c5c(F)cccc5[nH]c4=O)[nH]c3c2)CC1 [Dovitinib] + Cn1c(Nc2ccc(C(F)(F)F)cc2)nc2cc(Oc3ccnc(-c4ncc(C(F)(F)F)[nH]4)c3)ccc21 [CHIR265] (first compound 0.1 µM, partner dose 0.08 µM)
MZ2-MEL
  cell count: 71.1%
MeWo
  cell count: 76.7%
RPMI7951
  cell count: 61.3%
RVH-421
  cell count: 70%
SkMel28
  cell count: 56.7%
SkMel2
  cell count: 85.4%
SkMel30
  cell count: 52.1%
UACC62
  cell count: 65.9%
WM115
  cell count: 61.6%
WM1716
  cell count: 97.5%
WM1745
  cell count: 60.2%
WM3526
  cell count: 72.2%
WM3619
  cell count: 97.3%
WM451Lu
  cell count: 81.3%

## CN1CCN(c2ccc3nc(-c4c(N)c5c(F)cccc5[nH]c4=O)[nH]c3c2)CC1 [Dovitinib] + OCc1c[nH]c2ccccc12 [Indole-3-carbinol] (first compound 0.1 µM, partner dose 0.8 µM)
MZ2-MEL
  cell count: 89.8%
MeWo
  cell count: 91.9%
RPMI7951
  cell count: 107%
RVH-421
  cell count: 89.2%
SkMel28
  cell count: 93.2%
SkMel2
  cell count: 96.7%
SkMel30
  cell count: 81.6%
UACC62
  cell count: 89%
WM115
  cell count: 79.8%
WM1716
  cell count: 92.7%
WM1745
  cell count: 83.5%
WM3526
  cell count: 77.8%
WM3619
  cell count: 113%
WM451Lu
  cell count: 95%

## C=CCNC1=C2C[C@@H](C)C[C@H](OC)[C@H](O)[C@@H](C)/C=C(\C)[C@H](OC(N)=O)[C@@H](OC)/C=C\C=C(/C)C(=O)NC(=CC1=O)C2=O [Tanespimycin] + CC(=O)c1c(C)c2cnc(Nc3ccc(N4CCNCC4)cn3)nc2n(C2CCCC2)c1=O [palbociclib] (first compound 0.002 µM, partner dose 0.04 µM)
MZ2-MEL
  cell count: 81.9%
MeWo
  cell count: 70.3%
RPMI7951
  cell count: 75.5%
RVH-421
  cell count: 63.7%
SkMel28
  cell count: 54.3%
SkMel2
  cell count: 79.1%
SkMel30
  cell count: 70.9%
UACC62
  cell count: 75.3%
WM115
  cell count: 61.6%
WM1716
  cell count: 65.3%
WM1745
  cell count: 74.1%
WM3526
  cell count: 58.4%
WM3619
  cell count: 61.2%
WM451Lu
  cell count: 70.5%

## CN1CCN(c2ccc3nc(-c4c(N)c5c(F)cccc5[nH]c4=O)[nH]c3c2)CC1 [Dovitinib] + Cc1nc(Nc2ncc(C(=O)Nc3c(C)cccc3Cl)s2)cc(N2CCN(CCO)CC2)n1 [dasatanib] (first compound 0.1 µM, partner dose 0.004 µM)
MZ2-MEL
  cell count: 73.6%
MeWo
  cell count: 80.8%
RPMI7951
  cell count: 72.8%
RVH-421
  cell count: 97%
SkMel28
  cell count: 69.7%
SkMel2
  cell count: 111%
SkMel30
  cell count: 56.4%
UACC62
  cell count: 90.2%
WM115
  cell count: 88.6%
WM1716
  cell count: 91.4%
WM1745
  cell count: 68.9%
WM3526
  cell count: 83.2%
WM3619
  cell count: 114%
WM451Lu
  cell count: 68%

## CNC(=O)c1cc(Oc2ccc(NC(=O)Nc3ccc(Cl)c(C(F)(F)F)c3)cc2)ccn1 [sorafenib] + CCCS(=O)(=O)Nc1ccc(F)c(C(=O)c2c[nH]c3ncc(Cl)cc23)c1F [PLX4720] (first compound 0.4 µM, partner dose 0.08 µM)
MZ2-MEL
  cell count: 96%
MeWo
  cell count: 90.7%
RPMI7951
  cell count: 85.9%
RVH-421
  cell count: 108%
SkMel28
  cell count: 67.3%
SkMel2
  cell count: 90.4%
SkMel30
  cell count: 114%
UACC62
  cell count: 69.4%
WM115
  cell count: 90.4%
WM1716
  cell count: 108%
WM1745
  cell count: 100%
WM3526
  cell count: 69.4%
WM3619
  cell count: 105%
WM451Lu
  cell count: 100%
